{"source": "PubChem BioAssay AID1508623", "about": "(National Center for Advancing Translational Sciences (NCATS), 2021)", "note": "About 450 (0.94%) of roughly 48,000 compounds were called active. This list was built around the results that the source calls inconclusive (neither active nor inactive); the mix of calls is not that of the screen. Calls come from the whole dose curve; as a rule, active = well fitted inhibition curve with a large enough effect; inconclusive = small, poorly fitted or top-dose-only effect; inactive = no such curve, though single readings can be large or run the other way. Where the call is inconclusive, the potency comes from a doubtful curve fit. Some structures have more than one record in an assay (separate samples or runs), and their calls can disagree. Potency is the fitted concentration of half-maximal effect; tags give direction and shape of the fitted curve."}
{"assay": "Primary qHTS for Identification of Small Molecule Inhibitors of Huntingtin Promoter Activity; note: nearly all actives have a fitted effect of over 50% in size", "conditions": "HEK293 HTT promoter firefly luciferase reporter (activity 0% = vehicle and -100% = no light), 24 h; series mostly up to 57.5 µM", "procedure,_shortened": "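HEK293 luciferase promoter-reporter cells (2,500/well) plated 24 h, then compounds added at up to 57.5 uM final for 24 h at 37 °C. Firefly luminescence by Dual-Glo, normalized to vehicle (0%) and zero RLU (-100%).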"}
{"smiles": "O=C(CSc1nc2c([nH]c3ccccc32)c(=O)n1-c1ccc(F)cc1)NCc1ccc(F)cc1", "Potency": "inconclusive: 35.5 µM [inhibitor, partial curve, poor fit]"}
{"smiles": "Cc1ccc(Cl)cc1NC(=O)C1CCN(C(=O)c2cnn(-c3ccccc3)c2-n2cccc2)CC1", "Potency": "inconclusive: 35.5 µM [inhibitor, partial curve, poor fit]"}
{"smiles": "COC(=O)c1c(SCC(=O)Nc2cccc(Cl)c2C)[nH]c2ccccc2c1=O", "Potency": "inactive"}
{"smiles": "CC(C)(C)OC(=O)N1CCC(c2c(C(=O)N3CCC(c4ccccc4)C3)cnn2-c2ccc(Cl)cc2)CC1", "note": "(stereo not drawn)", "Potency": "inconclusive: 28.2 µM [inhibitor, single point]"}
{"smiles": "CCOC(=O)c1c(C)oc2ncnc(N3CCN(c4ccccc4)CC3)c12", "Potency": "inconclusive: 28.2 µM [inhibitor, single point]"}
{"smiles": "COc1ccccc1-c1nc(S(=O)(=O)c2ccccc2)c(N2CCC(C)CC2)o1", "Potency": "inconclusive: 35.5 µM [inhibitor, partial curve, poor fit]"}
{"smiles": "COc1ccccc1CCNC(=O)C(=O)NCC(c1ccco1)S(=O)(=O)c1ccccc1", "note": "(stereo not drawn)", "Potency": "inconclusive: 35.5 µM [inhibitor, single point]"}
{"smiles": "COc1ccc(Nc2nc3ccccc3nc2NS(=O)(=O)c2ccc(Cl)cc2)cc1OC", "Potency": "inconclusive: 10 µM [inhibitor, partial curve, poor fit]"}
{"smiles": "NS(=O)(=O)c1cc(C(=O)NN2C[C@H]3[C@H]4CCC(C4)[C@H]3C2)ccc1Cl", "Potency": "inactive"}
{"smiles": "CCC(C(=O)NCc1cccc(Br)c1)n1nc(C)c2c(C)n(-c3ccccc3)nc2c1=O", "note": "(stereo not drawn)", "Potency": "inconclusive: 20 µM [inhibitor, partial curve]"}
{"smiles": "O=S(=O)(Nc1cccc(F)c1)c1ccc2[nH]c3c(c2c1)CCCCC3", "Potency": "inconclusive: 28.2 µM [inhibitor, partial curve, poor fit]"}
{"smiles": "CCC(=O)N1CCc2cc(CNC(=O)c3ccc(C#N)cc3)ccc21", "Potency": "inconclusive: 31.6 µM [inhibitor, single point]"}
{"smiles": "CCS(=O)(=O)c1oc(-c2ccc(F)cc2)nc1S(=O)(=O)c1ccc(Br)cc1", "Potency": "inconclusive: 28.2 µM [inhibitor, single point]"}
{"smiles": "COc1ccccc1N1CCN(S(=O)(=O)CCNC(=O)C2CC(=O)N(c3ccccc3)C2)CC1", "note": "(stereo not drawn)", "Potency": "inconclusive: 35.5 µM [inhibitor, single point]"}
{"smiles": "CC(=O)C1=C(c2ccc(Cl)c(Cl)c2)N(C(C)=O)n2cnnc2S1", "Potency": "inconclusive: 17.8 µM [inhibitor, partial curve, poor fit]"}
{"smiles": "O=C1CN(C(=O)COc2ccc(Cl)cc2)C(c2ccc(F)cc2)c2cc(Br)ccc2N1", "note": "(stereo not drawn)", "Potency": "inconclusive: 35.5 µM [inhibitor, partial curve, poor fit]"}
{"smiles": "COc1ccc(NC(=O)CCNS(=O)(=O)c2ccc3c(c2)CCN3C(=O)C2CC2)cc1Cl", "Potency": "inconclusive: 39.8 µM [inhibitor, single point]"}
{"smiles": "CCS(=O)(=O)c1cccc(-c2cc(C(=O)NC3CCN(C)CC3)c(C)c3[nH]c4ncc(C)cc4c23)c1", "Potency": "inconclusive: 19.3 µM [inhibitor, partial curve]"}
{"smiles": "COc1ccc(-c2cc(OC(=O)c3cccc(C)c3)c3c(C)oc(C)c3c(=O)c2)cc1", "Potency": "inconclusive: 22.4 µM [inhibitor, single point]"}
{"smiles": "CCn1cc(C(=O)NCc2ccccc2OC)c(=O)c2cc(S(=O)(=O)N3CCCCCC3)ccc21", "Potency": "inactive"}
{"smiles": "Cc1cc(C)c(NS(=O)(=O)c2cc(-c3cnc(C4CC4)o3)ccc2C)c(C)c1", "Potency": "inactive"}
{"smiles": "CC(=O)N1CCN(c2ccc(O)cc2)CC1", "Potency": "inactive"}
{"smiles": "CN1C(=O)Cc2cc(S(=O)(=O)CCC(=O)N3CCN(c4cccc(Cl)c4)CC3)ccc21", "Potency": "inconclusive: 25.1 µM [inhibitor, partial curve, poor fit]"}
{"smiles": "COc1cccc(NS(=O)(=O)c2cc3c4c(c2)C(C)C(=O)N4CCC3)c1", "note": "(stereo not drawn)", "Potency": "inconclusive: 31.6 µM [inhibitor, partial curve, poor fit]"}
{"smiles": "Cc1ccsc1CCN1C(=O)N(c2ccc(F)cc2)C(=O)C1CC(=O)Nc1ccccc1", "note": "(stereo not drawn)", "Potency": "inconclusive: 14.1 µM [inhibitor, partial curve, poor fit]"}
{"smiles": "CCC(C)NC(=O)c1ccc2c(c1)N=C(C)c1cc(C)ccc1S2", "note": "(stereo not drawn)", "Potency": "inconclusive: 11.2 µM [inhibitor, partial curve]"}
{"smiles": "CCCn1cc(S(=O)(=O)c2cc(C)ccc2C)c(=O)c2cc(F)c(N3CCCCCC3)cc21", "Potency": "inconclusive: 39.8 µM [inhibitor, single point]"}
{"smiles": "CCOc1ccc(NCc2cccn2-c2nnc(N3CCC(C(=O)NCc4cccc(OC)c4)CC3)s2)cc1", "Potency": "inconclusive: 25.1 µM [inhibitor, single point]"}
{"smiles": "Cc1ccc(Cc2nc3ccccc3nc2SCC(=O)NCCc2ccccc2)cc1", "Potency": "inactive"}
{"smiles": "CC(=O)[C@]1(O)Cc2c(O)c3c(c(O)c2[C@@H](O[C@H]2C[C@H](N)[C@@H](O)[C@H](C)O2)C1)C(=O)c1ccccc1C3=O", "Potency": "inconclusive: 0.172 µM [inhibitor, full curve, poor fit]"}
{"smiles": "Cc1cccc(Cc2c(C)nc3nc(SCC(=O)NCc4ccc(F)cc4)nn3c2C)c1", "Potency": "inconclusive: 31.6 µM [inhibitor, partial curve, poor fit]"}
{"smiles": "Cc1ccc(NC(=O)CC2Sc3ccccc3NC2=O)c(Br)c1", "note": "(stereo not drawn)", "Potency": "inconclusive: 20 µM [inhibitor, partial curve, poor fit]"}
{"smiles": "O=C(NCCS(=O)(=O)N1CCN(c2cccc(Cl)c2)CC1)c1cc(=O)c2ccccc2o1", "Potency": "inconclusive: 39.8 µM [inhibitor, single point]"}
{"smiles": "CC1=C(c2ccc(C)c(C)c2)S(=O)(=O)N=C1N1CCC(C(=O)NCc2ccc(Cl)cc2)CC1", "Potency": "inconclusive: 22.4 µM [inhibitor, single point]"}
{"smiles": "CCOC(=O)c1cccc(NC(=O)c2cnc(N3CCCCC3)c3ccccc23)c1", "Potency": "inconclusive: 28.2 µM [inhibitor, single point]"}
{"smiles": "Cc1ccc2nc(NC(=O)CSc3nccn3Cc3ccccc3)sc2c1", "Potency": "inconclusive: 39.8 µM [inhibitor, single point]"}
{"smiles": "Cc1ccc(N(CC(=O)N2CCN(c3cc(Cl)ccc3C)CC2)S(=O)(=O)c2c(C)noc2C)cc1", "Potency": "inconclusive: 22.4 µM [inhibitor, single point]"}
{"smiles": "Cc1noc2ncnc(NCc3ccccc3Cl)c12", "Potency": "inconclusive: 14.1 µM [inhibitor, partial curve]"}
{"smiles": "COc1ccc(OC)c(NC(=O)c2sc3nc4c(cc3c2N)CCCCCC4)c1", "Potency": "inconclusive: 15.8 µM [inhibitor, partial curve, poor fit]"}
{"smiles": "Cc1ccc(C)c(N2CCN(C(c3ccc(F)cc3)c3nnc(-c4ccccc4)o3)CC2)c1", "note": "(stereo not drawn)", "Potency": "inconclusive: 35.5 µM [inhibitor, single point]"}
{"smiles": "CN[C@H]1CC[C@@H](c2ccc(Cl)c(Cl)c2)c2ccccc21", "Potency": "inconclusive: 39.8 µM [inhibitor, single point]"}
{"smiles": "Cn1cc(S(=O)(=O)c2ccc(Cl)cc2)c(=O)c2cc(F)c(N3CCOCC3)cc21", "Potency": "inconclusive: 22.4 µM [inhibitor, partial curve, poor fit]"}
{"smiles": "COc1ccc(N2CCN(S(=O)(=O)CCNC(=O)c3ccc(OC(C)C)cc3)CC2)cc1", "Potency": "inconclusive: 31.6 µM [inhibitor, single point]"}
{"smiles": "COC(=O)c1c(SCC(=O)Nc2cc(F)ccc2F)[nH]c2ccc(C)cc2c1=O", "Potency": "inactive"}
{"smiles": "CSc1cccc(NC(=O)C(c2ccccc2)N2Cc3ccccc3C2=O)c1", "note": "(stereo not drawn)", "Potency": "inconclusive: 35.5 µM [inhibitor, single point]"}
{"smiles": "COC(=O)C1CCN(C(c2ccccc2Cl)c2sc3nc(-c4ccco4)nn3c2O)CC1", "note": "(stereo not drawn)", "Potency": "inactive"}
{"smiles": "Cc1ccc(NC(=O)C2CCCN(S(=O)(=O)c3ccc(F)cc3)C2)cc1", "note": "(stereo not drawn)", "Potency": "inconclusive: 2.82 µM [inhibitor, partial curve, poor fit]"}
{"smiles": "COc1ccccc1N1CCN(C(=O)C2CCCN(S(=O)(=O)c3ccc4c(c3)oc(=O)n4C)C2)CC1", "note": "(stereo not drawn)", "Potency": "inconclusive: 10 µM [inhibitor, partial curve]"}
{"smiles": "COCCNC(=O)CSc1nnc(NC(=O)Nc2ccc(C)cc2)s1", "Potency": "inactive"}
{"smiles": "CCN(CC)c1ccc(NS(=O)(=O)c2ccc(-c3coc(C)n3)cc2)c(C)c1", "Potency": "inconclusive: 39.8 µM [inhibitor, partial curve, poor fit]"}
{"smiles": "Cc1ccc(CC(=O)Nc2c(C(=O)N3CCN(c4ccccc4)CC3)oc3ccccc23)cc1", "Potency": "inconclusive: 22.4 µM [inhibitor, single point]"}
{"smiles": "CCCCN(CC)CCNC(=O)C1CCN(c2nnc(C)c3c(C)n(-c4ccc(C)cc4)nc23)CC1", "Potency": "inactive"}
{"smiles": "CCc1c(C)nc2nncn2c1NCc1ccc(OC)cc1", "Potency": "inconclusive: 28.2 µM [inhibitor, partial curve, poor fit]"}
{"smiles": "Cc1ccc(Cc2c(C)nc3c(-c4ccccc4)c(C)[nH]n3c2=O)cc1", "Potency": "inconclusive: 28.2 µM [inhibitor, partial curve, poor fit]"}
{"smiles": "Cc1cccc(C)c1OCCn1c(C2CC(=O)N(Cc3ccc(F)cc3)C2)nc2ccccc21", "note": "(stereo not drawn)", "Potency": "inactive"}
{"smiles": "Cc1noc2ncnc(N3CCN(c4ccccc4F)CC3)c12", "Potency": "inconclusive: 12.6 µM [inhibitor, partial curve]"}
{"smiles": "Cc1cccc(CSc2nc3cccnc3n2Cc2ccc(C(=O)NCc3ccco3)cc2)c1", "Potency": "inconclusive: 28.2 µM [inhibitor, single point]"}
{"smiles": "O=C(O)c1cccc(-c2noc(-c3ccccc3F)n2)c1", "Potency": "active: 7.94 µM and inactive"}
